From article PMC12820563
The other results are listed elsewhere or left out. The list includes weakly bound sequences.

Each sequence was assayed against T1, MBP-FoxP3dN (UniProt Q99JB6) (assay: PD-seq (MBP pull-down with sequencing)). Conditions: 20 mM Tris-HCl pH 7.5, 100 mM NaCl, 1.5 mM MgCl2, 0.4 uM protein, 0.1 uM dsDNA library, 30 min, room temperature, amylose pull-down; high values mean tight binding; double strand, one strand shown.
T1 sequence: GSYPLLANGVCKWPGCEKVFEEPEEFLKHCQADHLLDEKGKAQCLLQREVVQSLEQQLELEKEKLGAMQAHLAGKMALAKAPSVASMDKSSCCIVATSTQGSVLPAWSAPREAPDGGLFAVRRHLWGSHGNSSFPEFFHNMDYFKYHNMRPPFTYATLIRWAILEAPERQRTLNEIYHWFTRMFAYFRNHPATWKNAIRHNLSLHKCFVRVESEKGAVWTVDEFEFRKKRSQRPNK

Row | Sequence | binding signal (RPM ratio (pull-down/input))
1 | GATGATTGTTCTCCCAGCTGATGAATTAGGCTGGTCGAGTAAACAAATTTTCCTAATCTTTCTGTTCAAGCGCCATCTAC | 0.593
2 | GATGATTGTTCTCCCAGCTGATGAATTTTGTGCCTCGAGTAAACAAATTTTCCTAATCTTTCTGTTCAAGCGCCATCTAC | 1.84
3 | GATGATTGTTCTCCCAGCTGATGAATTTAGCTGATCGAGTAAACAAATTTTCCTAATCTTTCTGTTCAAGCGCCATCTAC | 0.744
4 | GATGATTGTTCTCCCAGCTGATGAATTAGCGCCCTCGAGTAAACAAATTTTCCTAATCTTTCTGTTCAAGCGCCATCTAC | 0.739
5 | GATGATTGTTCTCCCAGCTGATGAATTGAGGAGCTCGAGTAAACAAATTTTCCTAATCTTTCTGTTCAAGCGCCATCTAC | 0.198
6 | GATGATTGTTCTCCCAGCTGATGAATTGTAGCGCTCGAGTAAACAAATTTTCCTAATCTTTCTGTTCAAGCGCCATCTAC | 0.704
7 | GATGATTGTTCTCCCAGCTGATGAATTGTAGCTGTCGAGTAAACAAATTTTCCTAATCTTTCTGTTCAAGCGCCATCTAC | 0.668
8 | GATGATTGTTCTCCCAGCTGATGAATTTGGAGACTCGAGTAAACAAATTTTCCTAATCTTTCTGTTCAAGCGCCATCTAC | 0.511
9 | GATGATTGTTCTCCCAGCTGATGAATTTGAATCCTCGAGTAAACAAATTTTCCTAATCTTTCTGTTCAAGCGCCATCTAC | 0.709
10 | GATGATTGTTCTCCCAGCTGATGAATTGATGCTATCGAGTAAACAAATTTTCCTAATCTTTCTGTTCAAGCGCCATCTAC | 2.82
11 | GATGATTGTTCTCCCAGCTGATGAATTCCAACACTCGAGTAAACAAATTTTCCTAATCTTTCTGTTCAAGCGCCATCTAC | 0.63
12 | GATGATTGTTCTCCCAGCTGATGAATTTGGCAGGTCGAGTAAACAAATTTTCCTAATCTTTCTGTTCAAGCGCCATCTAC | 0.637
13 | GATGATTGTTCTCCCAGCTGATGAATTGGGATTATCGAGTAAACAAATTTTCCTAATCTTTCTGTTCAAGCGCCATCTAC | 0.712
14 | GATGATTGTTCTCCCAGCTGATGAATTAGTTTAATCGAGTAAACAAATTTTCCTAATCTTTCTGTTCAAGCGCCATCTAC | 1.12
15 | GATGATTGTTCTCCCAGCTGATGAATTGAACTTTTCGAGTAAACAAATTTTCCTAATCTTTCTGTTCAAGCGCCATCTAC | 0.276
16 | GATGATTGTTCTCCCAGCTGATGAATTTGAATAATCGAGTAAACAAATTTTCCTAATCTTTCTGTTCAAGCGCCATCTAC | 0.371
17 | GATGATTGTTCTCCCAGCTGATGAATTTTGACTTTCGAGTAAACAAATTTTCCTAATCTTTCTGTTCAAGCGCCATCTAC | 1.32
18 | GATGATTGTTCTCCCAGCTGATGAATTAGAGGTGTCGAGTAAACAAATTTTCCTAATCTTTCTGTTCAAGCGCCATCTAC | 0.737
19 | GATGATTGTTCTCCCAGCTGATGAATTTGATCACTCGAGTAAACAAATTTTCCTAATCTTTCTGTTCAAGCGCCATCTAC | 0.63
20 | GATGATTGTTCTCCCAGCTGATGAATTCCACATTTCGAGTAAACAAATTTTCCTAATCTTTCTGTTCAAGCGCCATCTAC | 0.457
21 | GATGATTGTTCTCCCAGCTGATGAATTTCAACCCTCGAGTAAACAAATTTTCCTAATCTTTCTGTTCAAGCGCCATCTAC | 0.257

Row | Sequence | binding signal (RPM ratio (pull-down/input))
22 | GATGATTGTTCTCCCAGCTGATGAATTCACTTACTCGAGTAAACAAATTTTCCTAATCTTTCTGTTCAAGCGCCATCTAC | 0.655
23 | GATGATTGTTCTCCCAGCTGATGAATTCGGACCGTCGAGTAAACAAATTTTCCTAATCTTTCTGTTCAAGCGCCATCTAC | 0.325
24 | GATGATTGTTCTCCCAGCTGATGAATTCGACGGGTCGAGTAAACAAATTTTCCTAATCTTTCTGTTCAAGCGCCATCTAC | 0.295
25 | GATGATTGTTCTCCCAGCTGATGAATTATCTTCGTCGAGTAAACAAATTTTCCTAATCTTTCTGTTCAAGCGCCATCTAC | 0.248
26 | GATGATTGTTCTCCCAGCTGATGAATTCGAGACATCGAGTAAACAAATTTTCCTAATCTTTCTGTTCAAGCGCCATCTAC | 0.446
27 | GATGATTGTTCTCCCAGCTGATGAATTTTTGGCGTCGAGTAAACAAATTTTCCTAATCTTTCTGTTCAAGCGCCATCTAC | 0.466
28 | GATGATTGTTCTCCCAGCTGATGAATTACCTTTCTCGAGTAAACAAATTTTCCTAATCTTTCTGTTCAAGCGCCATCTAC | 0.352
29 | GATGATTGTTCTCCCAGCTGATGAATTTCACTAATCGAGTAAACAAATTTTCCTAATCTTTCTGTTCAAGCGCCATCTAC | 0.217
30 | GATGATTGTTCTCCCAGCTGATGAATTCATGATGTCGAGTAAACAAATTTTCCTAATCTTTCTGTTCAAGCGCCATCTAC | 0.987
31 | GATGATTGTTCTCCCAGCTGATGAATTCTGGGTCTCGAGTAAACAAATTTTCCTAATCTTTCTGTTCAAGCGCCATCTAC | 0.598
32 | GATGATTGTTCTCCCAGCTGATGAATTCCAAAGGTCGAGTAAACAAATTTTCCTAATCTTTCTGTTCAAGCGCCATCTAC | 0.173
33 | GATGATTGTTCTCCCAGCTGATGAATTCATATCATCGAGTAAACAAATTTTCCTAATCTTTCTGTTCAAGCGCCATCTAC | 1.01
34 | GATGATTGTTCTCCCAGCTGATGAATTCAGGAACTCGAGTAAACAAATTTTCCTAATCTTTCTGTTCAAGCGCCATCTAC | 0.189
35 | GATGATTGTTCTCCCAGCTGATGAATTATAGTGCTCGAGTAAACAAATTTTCCTAATCTTTCTGTTCAAGCGCCATCTAC | 0.59
36 | GATGATTGTTCTCCCAGCTGATGAATTTGAGTAGTCGAGTAAACAAATTTTCCTAATCTTTCTGTTCAAGCGCCATCTAC | 0.778
37 | GATGATTGTTCTCCCAGCTGATGAATTTTGTCCGTCGAGTAAACAAATTTTCCTAATCTTTCTGTTCAAGCGCCATCTAC | 0.813
38 | GATGATTGTTCTCCCAGCTGATGAATTTTTAGTTTCGAGTAAACAAATTTTCCTAATCTTTCTGTTCAAGCGCCATCTAC | 0.363
39 | GATGATTGTTCTCCCAGCTGATGAATTCGACCTCTCGAGTAAACAAATTTTCCTAATCTTTCTGTTCAAGCGCCATCTAC | 0.347
40 | GATGATTGTTCTCCCAGCTGATGAATTAGAACCGTCGAGTAAACAAATTTTCCTAATCTTTCTGTTCAAGCGCCATCTAC | 0.261
41 | GATGATTGTTCTCCCAGCTGATGAATTTTCTACCTCGAGTAAACAAATTTTCCTAATCTTTCTGTTCAAGCGCCATCTAC | 0.223
42 | GATGATTGTTCTCCCAGCTGATGAATTTATGTATTCGAGTAAACAAATTTTCCTAATCTTTCTGTTCAAGCGCCATCTAC | 4.45

Row | Sequence | binding signal (RPM ratio (pull-down/input))
43 | GATGATTGTTCTCCCAGCTGATGAATTAATAGCGTCGAGTAAACAAATTTTCCTAATCTTTCTGTTCAAGCGCCATCTAC | 0.661
44 | GATGATTGTTCTCCCAGCTGATGAATTGCGGTGGTCGAGTAAACAAATTTTCCTAATCTTTCTGTTCAAGCGCCATCTAC | 0.842
45 | GATGATTGTTCTCCCAGCTGATGAATTCACCGACTCGAGTAAACAAATTTTCCTAATCTTTCTGTTCAAGCGCCATCTAC | 0.237
46 | GATGATTGTTCTCCCAGCTGATGAATTATATCGATCGAGTAAACAAATTTTCCTAATCTTTCTGTTCAAGCGCCATCTAC | 0.48
47 | GATGATTGTTCTCCCAGCTGATGAATTAGAGAAATCGAGTAAACAAATTTTCCTAATCTTTCTGTTCAAGCGCCATCTAC | 0.329
48 | GATGATTGTTCTCCCAGCTGATGAATTAGTCTCCTCGAGTAAACAAATTTTCCTAATCTTTCTGTTCAAGCGCCATCTAC | 0.582
49 | GATGATTGTTCTCCCAGCTGATGAATTACACACATCGAGTAAACAAATTTTCCTAATCTTTCTGTTCAAGCGCCATCTAC | 0.857
50 | GATGATTGTTCTCCCAGCTGATGAATTGCGTGAATCGAGTAAACAAATTTTCCTAATCTTTCTGTTCAAGCGCCATCTAC | 0.95
51 | GATGATTGTTCTCCCAGCTGATGAATTAAGAGTCTCGAGTAAACAAATTTTCCTAATCTTTCTGTTCAAGCGCCATCTAC | 1.2
52 | GATGATTGTTCTCCCAGCTGATGAATTATATATATCGAGTAAACAAATTTTCCTAATCTTTCTGTTCAAGCGCCATCTAC | 1.27
53 | GATGATTGTTCTCCCAGCTGATGAATTAAACTAGTCGAGTAAACAAATTTTCCTAATCTTTCTGTTCAAGCGCCATCTAC | 0.282
54 | GATGATTGTTCTCCCAGCTGATGAATTGACGACTTCGAGTAAACAAATTTTCCTAATCTTTCTGTTCAAGCGCCATCTAC | 0.483
55 | GATGATTGTTCTCCCAGCTGATGAATTCTTGTATTCGAGTAAACAAATTTTCCTAATCTTTCTGTTCAAGCGCCATCTAC | 1.7
56 | GATGATTGTTCTCCCAGCTGATGAATTTTGCAATTCGAGTAAACAAATTTTCCTAATCTTTCTGTTCAAGCGCCATCTAC | 5.75
57 | GATGATTGTTCTCCCAGCTGATGAATTAAGCAGGTCGAGTAAACAAATTTTCCTAATCTTTCTGTTCAAGCGCCATCTAC | 0.469
58 | GATGATTGTTCTCCCAGCTGATGAATTTGACACCTCGAGTAAACAAATTTTCCTAATCTTTCTGTTCAAGCGCCATCTAC | 1.59
59 | GATGATTGTTCTCCCAGCTGATGAATTGACGAGGTCGAGTAAACAAATTTTCCTAATCTTTCTGTTCAAGCGCCATCTAC | 0.237
60 | GATGATTGTTCTCCCAGCTGATGAATTGATCCCATCGAGTAAACAAATTTTCCTAATCTTTCTGTTCAAGCGCCATCTAC | 0.368
61 | GATGATTGTTCTCCCAGCTGATGAATTGTGCCGCTCGAGTAAACAAATTTTCCTAATCTTTCTGTTCAAGCGCCATCTAC | 3.3
62 | GATGATTGTTCTCCCAGCTGATGAATTGATGAGTTCGAGTAAACAAATTTTCCTAATCTTTCTGTTCAAGCGCCATCTAC | 0.832
63 | GATGATTGTTCTCCCAGCTGATGAATTCCGGGTGTCGAGTAAACAAATTTTCCTAATCTTTCTGTTCAAGCGCCATCTAC | 0.669
